Data from PubChem BioAssay AID686970 (National Center for Advancing Translational Sciences (NCATS), 2013).
About 6,000 (1.7%) of roughly 360,000 compounds were called active. The inconclusive results got no clear call from the source; some entries with a clear call stand among them for comparison. The call rests on the fitted dose curve; in most records, active means well fitted cell-killing curve with a large enough effect; inconclusive means small, poorly fitted or top-dose-only effect, or effect the other way; inactive means flat fitted curve, though single readings scatter. Potencies of inconclusive entries are left out as doubtful fits.

Assay: qHTS for induction of synthetic lethality in tumor cells producing 2HG: qHTS for the HT-1080-NT fibrosarcoma cell line;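 further: NT is the 2HG producing partner of a matched IDH1 knockdown line; nearly all actives have a fitted effect of over 55% in size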;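 on activity, negative = less viability: 0% = DMSO-treated cells and -100% = media-only wells without cells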
Conditions: HT-1080-NT fibrosarcoma viability, CellTiter-Glo ATP luminescence, 48 h; activity, negative = less viability: at 46.1 µM (top of the series) unless noted
Method in brief: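 Toxicity toward the 2HG-producing NT line was scored as %Activity, normalised to DMSO and no-cell wells, from CellTiter-Glo luminescence after 48 hours' treatment.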
Potency means the concentration at half of the fitted maximal effect; tags describe the fitted curve by direction and shape.

Row | Compound | activity, negative = less viability | Potency
1 | Cc1ccccc1-c1csc(C(C)(O)c2ccccc2)n1 (stereo unspecified) | inactive: -15.1% | 
2 | O=C1CC(c2ccccc2)Sc2nc(-c3ccccc3)c(-c3ccccc3)n21 (stereo unspecified) |  | inconclusive [rising, partial curve]
3 | CC1CCc2c(sc3nc(SCC(=O)NCc4ccco4)nc(N)c23)C1 (stereo unspecified) |  | inconclusive [cytotoxic, partial curve]
4 | CNC(=O)CSc1nnc(-c2ccco2)n1-c1ccccc1OC | inactive: 12.6% | 
5 | COc1ccc2oc(=O)c(-c3cn4ccc(C)cc4n3)cc2c1 |  | inconclusive [rising, partial curve, poor fit]
6 | COc1cccc(-c2sc3ccc(OC)cc3c2-c2ccc(OCCN3CCCCC3)cc2)c1 |  | inconclusive [cytotoxic, partial curve]
7 | COc1ccc(CN2CCN(Cc3cccn3-c3ncccn3)CC2CCO)c(C)c1C (stereo unspecified) |  | inconclusive [cytotoxic, partial curve]
8 | Cc1nnc(SC(=O)N2c3ccccc3Sc3ccccc32)s1 |  | active: 8.91 µM
9 | CC(C)(C)OC(=O)N1CCC[C@H]1c1nnc(SCc2ccccc2Cl)o1 | inactive: 0.838% | 
10 | COC(=O)c1c(NC(=O)c2cccc(S(=O)(=O)N3CCN(C)CC3)c2)sc(C)c1C | inactive: -13.3% | 
11 | Cc1cc(SCC#N)n2nc(C)c(-c3ccccc3)c2n1 | inactive: -29.2% | 
12 | O=C(Cc1csc(N2CCOCC2)n1)N/N=C/c1ccc(O)c(O)c1O | inactive: -5.42% | 
13 | CCCCNC(=O)N(O)C1N(/N=C/c2ccco2)C(=S)SC1(C)C (stereo unspecified) | inactive: 4.38% | 
14 | CC(C)c1nc(SCC(=O)Nc2cccc(C(=O)O)c2)c2c3c(sc2n1)CCCC3 |  | inconclusive [cytotoxic, single point]
15 | O=C(CSc1nc(-c2cccs2)cc(C(F)(F)F)n1)Nc1cc(OCC(F)(F)C(F)F)cc([N+](=O)[O-])c1 |  | inconclusive [cytotoxic, single point]
16 | CC(C)NC(=O)N(C)C[C@@H]1Oc2cc(C#Cc3ccccn3)ccc2S(=O)(=O)N([C@@H](C)CO)C[C@H]1C | inactive: -2.19% | 
17 | CC(=O)n1c2c(c3ccccc31)OC(N)=C(C#N)C2c1ccc(C(C)C)cc1 (stereo unspecified) |  | inconclusive [cytotoxic, single point]
18 | Cc1ccc(C2=NC(C)(C)N=C2SCC(=O)Nc2ccc(Cl)cc2)cc1 |  | inconclusive [cytotoxic, partial curve]
19 | COc1ccc(/C=C/c2nnc(NC(=O)CC(C)C)s2)cc1 |  | inconclusive [cytotoxic, partial curve]
20 | CCCCNC(=O)c1ccc2nc(CC)c(N(CCC(C)C)CCN(C)C)n2c1 |  | inconclusive [cytotoxic, single point]
21 | Cc1nnc(NC(=O)CSc2nnc(Cc3cccn3C)n2-c2ccccc2)s1 |  | inconclusive [rising, single point]
22 | Cc1nn(Cc2ccc(Cl)c(Cl)c2)c(C)c1NC(=O)c1cc(-c2ccc3c(c2)OCO3)on1 |  | inconclusive [cytotoxic, partial curve]
23 | CCc1nnc(NC(=O)c2oc3ccccc3c2COC(C)C)s1 | inactive: -0.733% | 
24 | O=C1NC(=Nc2cccnc2)S/C1=C/c1ccc(F)cc1 |  | inconclusive [cytotoxic, full curve]

Row | Compound | activity, negative = less viability | Potency
25 | COc1ccc(-n2c3c(cc(C(=O)NNc4ccccc4)c2=O)C(=O)CC(C)(C)C3)cc1 |  | inconclusive [cytotoxic, single point]
26 | Cc1ccc(NC(=O)C(OC(=O)c2ccc(C=O)cc2)c2ccccc2)cc1Cl (stereo unspecified) |  | inconclusive [cytotoxic, partial curve]
27 | c1ccc(-c2ccc3c(c2)c2c4n3CCN=C4CCC2)cc1 |  | inconclusive [cytotoxic, single point]
28 | Cc1ccc(-c2cc(-c3ccccc3)c3c(N)c(S(C)(=O)=O)sc3n2)cc1 |  | inconclusive [cytotoxic, single point]
29 | O=C(O)CCC(=O)Nc1cccc2cccnc12 | inactive: -8.57% | 
30 | O=C(NCc1ccccn1)c1ccc2c(=O)n3nc(Nc4ccccc4)sc3nc2c1 |  | inconclusive [cytotoxic, full curve]
31 | Cc1c(CN(C)C)c2c(n1C)C(=O)c1ccc(Br)cc1-2 |  | inconclusive [cytotoxic, single point]
32 | O=[N+]([O-])c1ccc(NN=Cc2cccc([N+](=O)[O-])c2)cc1 |  | inconclusive [cytotoxic, single point]
33 | COc1ccc(CC(=O)Nc2nc(OCC(F)(F)F)cnc2-c2ccc(Cl)cc2Cl)cc1 |  | inconclusive [cytotoxic, single point]
34 | CN(CC(=O)Nc1cccc(F)c1)C(=O)c1ccc(S(=O)(=O)N2CCCC2)cc1 | inactive: -2.33% | 
35 | Nc1nc(Nc2ccccc2)sc1C(=O)c1ccccc1 |  | inconclusive [cytotoxic, partial curve]
36 | CCOc1ccc(N=c2oc3cc(O)ccc3cc2C(=O)NCC2CCCO2)cc1 (stereo unspecified) | inactive: 3.25% | 
37 | c1ccc(CN2CCC(Nc3nc(-c4cccs4)nc4ccccc34)CC2)cc1 |  | inconclusive [cytotoxic, single point]
38 | COc1ccc(CCn2ccc(O)c(Cc3c(F)cccc3Cl)c2=O)cc1OC | inactive: -0.944% | 
39 | O=S(=O)(NC1CCCCC1Oc1ccccc1)c1ccc(Cl)cc1 (stereo unspecified) |  | inconclusive [cytotoxic, single point]
40 | CC1=NN(c2ccccc2)C(=O)C1C(=O)c1cc([N+](=O)[O-])cc([N+](=O)[O-])c1 (stereo unspecified) | inactive: -19.9% | 
41 | Cn1c(CCCNC(=O)c2ccco2)nc2ccccc21 | inactive: 15.5% | 
42 | CCCCCCCCN1C(=O)[C@H](CC(=O)N2CCCCC2)C[C@@]2(C(=O)OC)CC(C)(C)CC=C12 |  | inconclusive [cytotoxic, single point]
43 | COc1ccccc1C#CC1=CC(=O)C[C@H](c2ccc(F)cc2)C1 |  | inconclusive [cytotoxic, single point]
44 | O=CNc1cc(-c2cccc(F)c2)cn2c(-c3ccc(F)cc3)cnc12 | inactive: 0.531% | 
45 | C[C@@]12C(=O)Nc3cc(Cl)ccc3C(=O)N1[C@H]1c3cc(Br)ccc3OC[C@@H]1[C@@H]2c1ccccc1 |  | inconclusive [cytotoxic, partial curve]
46 | Cc1ccc(S(=O)(=O)N2C[C@H]3C(=O)C[C@@H](c4ccc(Cl)cc4)N(S(=O)(=O)c4ccc(C)cc4)[C@H]3C[C@H]2c2ccc(Cl)cc2)cc1 | inactive: 7.98% | 
47 | CC(C)C(NC(=O)OCc1ccccc1)C(=O)O (stereo unspecified) |  | inconclusive [rising, single point]
48 | Cc1sc2ncnc(N/N=C/c3ccc(O)cc3)c2c1C | inactive: -14.4% | 

Row | Compound | activity, negative = less viability | Potency
49 | Cc1oc2ccc(OC(=O)c3cccs3)cc2c1C(=O)OC(C)C | inactive: -1% | 
50 | COc1ccc(C(=O)Nc2sc3c(c2C#N)CCN(C(C)=O)C3)cc1 |  | active: 8.2 µM
51 | N=C1/C(=C/c2cccn2Cc2ccc(Cl)cc2)C(=O)N=C2SC=CN12 |  | active: 16.4 µM
52 | COc1ccc(OC)c(NC(=O)C2COc3ccccc3O2)c1 (stereo unspecified) | inactive: -0.827% | 
53 | Cc1ccc(-c2nc3ccccc3s2)cc1NC(=S)NC(=O)/C=C/c1ccco1 |  | inconclusive [cytotoxic, single point]
54 | COc1ccc(S(=O)(=O)Nc2ccccc2C(=O)NCc2ccco2)cc1 | inactive: 22% | 
55 | CCOC(=O)N1CCN(C(=O)c2ccc(N(Cc3ccc(C)cc3)S(C)(=O)=O)cc2)CC1 | inactive: 2.5% | 
56 | CCCn1nnc(NC(=O)c2ccc(-c3ccccc3)cc2)n1 |  | inconclusive [cytotoxic, single point]
57 | CC(C)C(NS(=O)(=O)c1cccs1)C(=O)Nc1nc(C(C)(C)C)cs1 (stereo unspecified) |  | inconclusive [cytotoxic, partial curve]
58 | Cn1c(NCCN2CCCC2)nc2cc(-c3ccccc3)sc2c1=O | inconclusive: -69.4% | 
59 | CN(C(=O)COC(=O)c1cc(S(=O)(=O)N2CCOCC2)ccc1Cl)C1CCS(=O)(=O)C1 (stereo unspecified) | inactive: -4.57% | 
60 | COCCN(CC(=O)Nc1cccc(C)c1C)C(=O)c1cc(S(=O)(=O)N2CCCC2)ccc1C | inactive: 1.76% | 
61 | COc1ccc(N(Cc2cc(=O)[nH]c3ccccc23)C(=O)CCl)cc1 |  | active: 3.26 µM
62 | COc1cc(/C=C/C(=O)/C=C(O)/C=C/c2ccc(O)c(OC)c2)ccc1O |  | inconclusive [cytotoxic, single point]
63 | Nc1cc(N2CCOCC2)c(Cl)cc1[N+](=O)[O-] |  | inconclusive [cytotoxic, single point]
64 | CC1(C(=O)NCCc2ccccc2)Cc2c(-c3ccc4c(c3)OCO4)ccnc2O1 (stereo unspecified) |  | inconclusive [cytotoxic, single point]
65 | CCOC(=S)SCC(=O)Nc1nc(C)c(C)s1 |  | inconclusive [cytotoxic, single point]
66 | CC(=O)c1sc(N/N=C2\CC3CCC2(C)C3(C)C)nc1C (stereo unspecified) |  | active: 23.1 µM
67 | O=C(C[C@H]1C(=O)N(Cc2cccnc2)C[C@@H]1Cc1ccccc1)Nc1ccc(Br)cc1 |  | inconclusive [cytotoxic, single point]
68 | Cc1cc(-c2n[nH]c(=S)n2/N=C/c2ccc(Cl)c([N+](=O)[O-])c2)n[nH]1 |  | active: 6.51 µM
69 | CC1(C(=O)Nc2ccccc2Cc2ccccc2)CCN1Cc1ccccc1Cl (stereo unspecified) |  | inconclusive [cytotoxic, single point]
70 | CCCCCCSc1cccc(-c2nc3cc(C)ccn3c2NCc2ccccc2)c1 |  | inconclusive [cytotoxic, single point]
71 | CCc1nc(N2CCN(Cc3ccc4c(c3)OCO4)CC2)c2oc3ccccc3c2n1 |  | inconclusive [cytotoxic, single point]
